Measured values as given in PubChem BioAssay AID1240 (Sanford-Burnham Center for Chemical Genomics, 2008).
The whole screen tested about 50,000 compounds, of which about 800 (1.6%) showed an effect of 50% or more. The list shows a part of the results.

Molecular target: Bcl-2-like protein 10 (Homo sapiens) (UniProt Q9HD36)
Assay: TR3 peptide-Bcl-B binding displacers, biochemical primary FP assay, phenotype converters (AID 1240);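 further: 0% = Bcl-B with tracer peptide and DMSO and 100% = tracer peptide lacking Bcl-B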
Details: GST-Bcl-B / FITC-TR3 peptide fluorescence polarization; stronger effect = higher value; compound at 3.75 mg/L

Sequence of UniProt Q9HD36 (Q9HD36 whole entry, looked up): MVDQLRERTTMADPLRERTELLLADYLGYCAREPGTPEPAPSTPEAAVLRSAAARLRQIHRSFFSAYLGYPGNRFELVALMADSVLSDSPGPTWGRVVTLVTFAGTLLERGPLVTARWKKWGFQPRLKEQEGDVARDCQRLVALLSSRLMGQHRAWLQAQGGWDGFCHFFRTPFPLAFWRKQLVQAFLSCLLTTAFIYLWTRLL

| Structure (SMILES) | displacement [%] |
| --- | --- |
| CCCOc1ccc(C(=O)N2CCc3ccccc32)cc1 | -8.5 |
| CCc1ccc(N2CC(C(=O)Nc3ccccc3F)CC2=O)cc1 (stereo not given) | 5.1 |
| CC(=O)Oc1ccc(-c2cccc(C(=O)NCc3ccccc3)c2)cc1 | 3.8 |
| CCC(Oc1ccccc1)C(=O)Nc1ccc(S(N)(=O)=O)cc1 (stereo not given) | -0.9 |
| CCC1(c2ccccc2)NC(=S)N(c2ccc(C)cc2)N1 (stereo not given) | -15.2 |
| O=C(c1ccc(-c2ccccc2)cc1)N1CCN(Cc2ccccn2)CC1 | -23.9 |
| CCCCCCn1cnn2c(=O)cc(C)nc12 | 11.1 |
| COc1ccccc1N1C(=O)NC(=O)/C(=C/c2ccc(Br)s2)C1=O | 10.6 |
| CCNC(=O)NC1C(NC(=O)NCC)N(C)C(=O)N1C (stereo not given) | 7.1 |
| O=P(Cc1ccccn1)(c1ccccc1)c1ccccc1 | -4.7 |
| CCCCNCCCOc1cc(Cl)ccc1Cl | 6.5 |
| CC1=NN(C(=N)c2ccccc2)C(O)(c2ccccc2)C1 (stereo not given) | -2.8 |
| CCCN1C(=O)c2ccccc2NC1c1ccc(Cl)cc1 (stereo not given) | 11.4 |
| Cc1sc(NC(=O)CN2C(=O)c3ccccc3C2=O)nc1-c1ccccc1 | 6.1 |
| CC1(C)CC(NCC(=O)OC2CCCCC2)CC(C)(C)N1 | 12.1 |
| COc1cc(NC(=O)c2ccc3c(c2)C(=O)N(c2ccccc2OC)C3=O)c(C(=O)O)cc1OC | -0.6 |
| Cc1ccc(N2NC(=O)/C(=C\c3cccc([N+](=O)[O-])c3)C2=O)cc1 | 0.6 |
| Cc1onc(-c2c(F)cccc2Cl)c1C(=O)N1CCN(c2ccccn2)CC1 | -9.8 |
| O=C(O)C1C2CCC(O2)C1C(=O)NCc1cccs1 (stereo not given) | 6.3 |
| COc1ccc(C(=O)Nc2cc(C)nc3ccccc23)cc1OC | -5.8 |
| COC(=O)C1=CNC=C(C(=O)OC)C1c1cccc(OC)c1 | 1.2 |
| COc1cc(/C=N/N2C(=O)CSC2=S)ccc1O | -22.5 |
| Cc1cccc(OC(=O)C#Cc2ccccc2)c1 | 4.5 |
| O=C(Nc1ccccc1C(=O)NCc1ccccc1)c1ccccc1F | 0.8 |

| Structure (SMILES) | displacement [%] |
| --- | --- |
| CCOCCOC(=O)c1ccc(NC(=O)COc2c(C)cccc2C)cc1 | 13.5 |
| CCC1=NN(C(=O)c2ccc([N+](=O)[O-])cc2)C(O)(c2ccncc2)C1 (stereo not given) | 15.8 |
| CCSc1nnc(NC(=O)/C=C/c2ccc(Cl)cc2)s1 | 12.4 |
| COc1ccc(Cc2noc(-c3ccccc3Cl)n2)cc1 | -5.3 |
| CCCCOc1cccc(C(=O)Nc2ccc(C(=O)OCCC)cc2)c1 | -11.3 |
| CCOc1cc(C(=O)Nc2cccc(C)c2C)cc(OCC)c1OCC | 0.4 |
| O=C(/C=C/c1cccc([N+](=O)[O-])c1)NCCc1ccccc1 | -5.7 |
| Cc1ccc(N(CC(=O)N2CCOCC2)S(C)(=O)=O)cc1Cl | -6.4 |
| O=C(Nc1cccc(Br)c1)c1ccc(N2C(=O)c3ccccc3C2=O)cc1 | 13.2 |
| O=C(O)c1cc(C(=O)O)cc(S(=O)(=O)Nc2ccc(Cl)c([N+](=O)[O-])c2)c1 | 3.2 |
| COc1ccc(C2CC(=O)C3=C(C2)NC(C)=C(C(=O)OCCc2ccccc2)C3c2ccncc2)cc1 (stereo not given) | -6.9 |
| O=C(Nc1ccc([N+](=O)[O-])c(NC(=O)c2cccs2)c1)c1cccs1 | -4.2 |
| CCCc1cc(C(=O)OC)c(NC(=O)c2c(F)cccc2F)s1 | 1 |
| CCOC(=O)c1c(C)nn2c1NC(c1ccc(Cl)cc1)CC2C(F)(F)F (stereo not given) | 9 |
| O=C(NC1CCCC1)c1ccc(CN(c2ccccn2)S(=O)(=O)c2ccccc2)cc1 | 2.1 |
| COc1ccc(S(=O)(=O)N2CCN(C(=O)c3ccccc3F)CC2)cc1 | -13.5 |
| CC(C(=O)c1ccc(Cl)cc1)[n+]1ccccc1 (stereo not given) | 2.8 |
| COc1ccccc1OC(=O)Nc1ccc(Cl)cc1 | 0.6 |
| O=C(Nc1ncc([N+](=O)[O-])s1)c1ccc2c(c1)C(=O)N(CC1CCCO1)C2=O (stereo not given) | -4.5 |
| O=C(CSc1nc2ccccc2[nH]1)Nc1ccc(/C=C/c2ccccc2)cc1 | 3 |
| COc1ccc(/C=C/C(=O)Nc2ccc(F)cc2)cc1OC | -6.9 |
| O=C(NN1C(=O)/C(=C/c2cccc(O)c2)SC1=S)c1ccc([N+](=O)[O-])cc1 | 0.8 |
| CC1(C)CC(NC(=O)CC#N)CC(C)(C)N1 | 5.6 |
| COc1ccc(N(CC(=O)Nc2cccc(Br)c2)S(=O)(=O)c2ccccc2)cc1Cl | 12.6 |

| Structure (SMILES) | displacement [%] |
| --- | --- |
| CCCC12C(=O)C(C)(C(c3ccccc3)=C1c1ccccc1)C1C(=O)N(c3cccc(Cl)c3)C(=O)C12 (stereo not given) | 15 |
| O=C(NNC(=O)c1ccco1)C(=O)N1CCCC1 | 1.4 |
| CCOc1ccc(N2C(=O)NC(=O)/C(=C\c3ccc(OC)cc3C)C2=O)cc1 | -25.9 |
| COc1ccc2nc(SCC(=O)Nc3ccc4c(c3)C(=O)c3ccccc3C4=O)[nH]c2c1 | 8.9 |
| COC(=O)c1ccccc1NC(=O)C1CN(S(=O)(=O)c2ccccc2)CCN1S(=O)(=O)c1ccccc1 (stereo not given) | 0 |
| COc1ccc(/C=C2\SC(=O)N(CCC(=O)Nc3ccccc3C)C2=O)cc1OC | 79.4 |
| COc1ccc(/C=C/C(=O)NCCSCc2ccc(Cl)cc2)cc1 | -6.3 |
| Nc1nc(O)c(C2=c3cc(Cl)ccc3=NC2=O)s1 | -7.1 |
| O=C(c1ccc(Cl)cc1Cl)N1CCN(c2ccc(Cl)cc2)CC1 | -0.9 |
| O=[N+]([O-])c1ccc(-n2nncc2-c2ccccc2)cc1 | -4 |
| CCCC(=O)Nc1nnc(-c2cccc(OCC)c2)s1 | 1.3 |
| COc1ccc(CC(=O)NNC(=O)c2ccccc2Cl)cc1OC | -14.1 |
| COc1ccc(NC(=O)NS(=O)(=O)c2ccc(C)cc2)c(OC)c1 | -1.8 |
| O=C(Nc1ccccc1C(=O)NCCCO)c1ccccc1 | 14.6 |
| COc1ccc(/C=C(\NC(=O)c2ccc(C)cc2)C(=O)NCCCN2CCOCC2)cc1OC | 8.8 |
| CCOc1ccccc1NC(=O)c1c(N)sc2c1CCCCC2 | -15.6 |
| O=C(CN(c1ccccc1)S(=O)(=O)c1ccccc1[N+](=O)[O-])Nc1ccccc1Br | -1.2 |
| Cc1cccc(N2C(=O)c3ccccc3C2=O)n1 | 15.4 |
| COc1ccc(C2NC(=O)NC(C)=C2C(=O)Nc2cc(Cl)ccc2C)cc1OC (stereo not given) | 12 |
| COc1ccc(Br)cc1C(=O)Nc1ccc2oc(-c3ccccc3)nc2c1 | -2.9 |
| Cc1ccc(S(=O)(=O)N(CC(=O)Nc2ccc(F)cc2)Cc2ccccc2)cc1 | -12.1 |
| O=C(Cc1ccc(Cl)cc1)c1ccc2c(c1)OCCO2 | 2.8 |
